Data taken from PubChem BioAssay AID686978 (National Center for Advancing Translational Sciences (NCATS), 2013).
Screen size: about 420,000 compounds; about 64,000 (15%) were called active. Inconclusive results, whose numbers are uncertain, are shown with a selection of clear calls. The call rests on the fitted dose curve; in most records, active means well fitted inhibition curve with a large enough effect; inconclusive means small, poorly fitted or top-dose-only effect; inactive means flat fitted curve, though single readings scatter. Potencies of inconclusive entries are left out as doubtful fits.

Test: qHTS for Inhibitors of human tyrosyl-DNA phosphodiesterase 1 (TDP1): qHTS in cells in absence of CPT; further: nearly all actives have a fitted effect of over 55% in size
Settings: DT40 Tdp1-/- hTDP1 cells, no CPT, ATP luminescence, 48 h; activity change, negative = growth inhibition: at 46.2 µM (top of the series)
Outline: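 Growth of hTDP1-complemented DT40 Tdp1-knockout cells is measured by ATP luminescence after at least 48 hr compound exposure at 37 °C, with DMSO substituting for the 20 nM CPT used in the parallel screen.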
On the % scale 0 is the no-effect control and ±100 the full control effect; potency means the concentration at half of the fitted maximal effect; tags describe the fitted curve by direction and shape.

Row | SMILES | Potency | activity change, negative = growth inhibition
1 | Cc1ccc(C)c(N2CCN(S(=O)(=O)c3ccc4c(c3)CC(=O)N4C)CC2)c1 | inconclusive [inhibitor, partial curve] | 
2 | Brc1cccc(OCCN2CCc3ccccc3C2)c1 | inconclusive [inhibitor, single point] | 
3 | COc1ccccc1NC(=O)CSc1nc2sc(C)c(C)c2c(=O)n1C | active: 13 µM | 
4 | COc1ccc(C(=O)COC(=O)c2sc(C)nc2C)cc1OC | inconclusive [inhibitor, single point] | 
5 | Cc1ccc(C)c(OCC(=O)Nc2nc3ccc([N+](=O)[O-])cc3s2)c1C | inconclusive [inhibitor, single point] | 
6 | COC(=O)Cc1c(C)[nH]n(-c2cc(Cl)cc(Cl)c2)c1=O |  | inactive: 2.13%
7 | Cc1ccc(S(=O)(=O)N2CCCC(c3nc4c(nnn4Cc4ccc5c(c4)OCCO5)c(=O)[nH]3)C2)cc1 (stereo not given) | inconclusive [inhibitor, single point] | 
8 | O=C(Cc1ccccc1[N+](=O)[O-])NCCSCc1c(F)cccc1Cl | inconclusive [inhibitor, partial curve] | 
9 | CC(C)CCNC(=O)c1cccc(-n2cnc3cccnc32)c1 | inconclusive [inhibitor, single point] | 
10 | Cc1c(C(=O)OCC(=O)N(C)C2CCS(=O)(=O)C2)oc2ccc(Br)cc12 (stereo not given) |  | inconclusive: -31.1% [inhibitor]
11 | Cc1ccc(NC(=O)CCc2c(C)nc3ncnn3c2C)nc1 |  | inconclusive: -45.6% [inhibitor]
12 | Cn1ncc(Cl)c1C(=O)N1CCN(c2ccc(F)cc2)CC1 |  | inactive: 1.44%
13 | O=C(COc1ccccc1)OC(C(=O)c1ccccc1)c1ccccc1 (stereo not given) |  | inactive: -15.9%
14 | CCCCN(CC)CCCNC(=O)C1CCN(c2nc3ccc(CC)cc3s2)CC1 | active: 13 µM | 
15 | Cc1oc(C(C)(C)C)cc1-c1cc(NC(=O)c2ccc([N+](=O)[O-])cc2)n[nH]1 | inconclusive [inhibitor, single point] | 
16 | COc1cc2c(cc1OC)CN(CC(=O)Nc1ccc(F)cc1)C(C(=O)O)C2 (stereo not given) |  | inactive: 5.53%
17 | COc1cccc(CNC(=O)Cn2c(SCC(=O)Nc3ccc(F)cc3)nc3ccccc32)c1 | inconclusive [inhibitor, single point] | 
18 | O=C(CNC(=O)c1cccs1)N/N=C/c1ccc(O)cc1O | inconclusive [inhibitor, single point] | 
19 | COc1ccc(OC)c(-c2csc(NC(=O)CSCc3c(C)noc3C)n2)c1 | inconclusive [inhibitor, single point] | 
20 | CCOC(=O)[C@]12CCCC=C1N(Cc1ccccc1)C(=O)[C@H](CC(=O)N1CCC(c3ccccc3)CC1)C2 | inconclusive [inhibitor, single point] | 
21 | O=C(CN(c1ccc(Cl)cc1)S(=O)(=O)c1ccccc1)N/N=C/c1ccco1 |  | inactive: -38.8%
22 | CCOCCCNC(=O)c1[nH]c2cc(OC)ccc2c1Sc1ccccc1 |  | inactive: -3.58%
23 | N#CC1=C(N)Oc2ccc3ccc(O)cc3c2C1c1ccsc1 (stereo not given) | inconclusive [inhibitor, single point] | 
24 | COc1ccc(N(CC(O)CN2C(=O)NC(C)(C)C2=O)S(=O)(=O)c2ccccc2)cc1 (stereo not given) |  | inactive: -8.23%

Row | SMILES | Potency | activity change, negative = growth inhibition
25 | CC(C)(C)c1nc(SCC(=O)N2CC(=O)Nc3ccccc32)c2ccccc2n1 |  | inactive: -26.8%
26 | CCOc1ccc(/C=N/n2c(-c3ccccc3)n[nH]c2=S)cc1 | inconclusive [inhibitor, single point] | 
27 | Cn1c(N)c(C(=O)CCl)c(=O)n(C)c1=O | inconclusive [inhibitor, single point] | 
28 | Cc1cccc(-n2ccnc2SCC(=O)Nc2cc(C)on2)c1 | inconclusive [inhibitor, single point] | 
29 | C[C@@]12C(=O)N(Cc3ccco3)CC(=O)N1[C@H]1c3cc(Cl)ccc3OC[C@@H]1[C@@H]2c1ccccc1 | inconclusive [inhibitor, single point] | 
30 | CCCCN1C(=O)C(CC(=O)NC(c2ccccc2)c2ccccc2)CC(C(=O)N2CCCCCC2)=C1C (stereo not given) | inconclusive [inhibitor, single point] | 
31 | CCCc1c(C(=O)N/N=C(\C)c2ccc3c(c2)OCO3)nnn1-c1nonc1N |  | inactive: 2.97%
32 | Cc1cc(C(=O)COC(=O)c2cccc(O)c2)c(C)n1C1CC1 | inconclusive [inhibitor, single point] | 
33 | CN(N=O)C(=O)N[C@H]1C(O)C(O)C(CO)O[C@@H]1O (stereo not given in full) |  | inactive: -12.1%
34 | CN=C1S/C(=C\c2ccc(N3CCCC3)c(F)c2)C(=O)N1C | inconclusive [inhibitor, single point] | 
35 | CCO/C(C)=C1\N=C(c2ccc(Cl)cc2)OC1=O |  | inactive: -21.3%
36 | Cc1cccc(N(CC(=O)Nc2cccc(Cl)c2C)S(C)(=O)=O)c1C | inconclusive [inhibitor, partial curve] | 
37 | C[C@H](CO)N1C[C@H](C)[C@@H](CN(C)Cc2ccc(Oc3ccccc3)cc2)Oc2cc(Br)ccc2S1(=O)=O | active: 11.6 µM | 
38 | CC(C)CCNC(=O)CCSCCC(=O)NCCC(C)C |  | inactive: -0.416%
39 | C=C[C@]1(C)C[C@@H](OC(=O)CSC(C)(C)CNC(=O)[C@H](N)C(C)C)[C@]2(C)[C@H](C)CC[C@]3(CCC(=O)[C@H]32)[C@@H](C)[C@@H]1O | active: 0.266 µM | 
40 | COC(=O)[C@@]12C[C@@H](CC(=O)N3CCCC3)C(=O)N(Cc3ccco3)C1=CCC(C)(C)C2 | active: 16.4 µM | 
41 | CCOc1ccccc1NC(=O)NCCC1=CCCCC1 |  | inactive: -17.3%
42 | CSc1cccc(NC(=O)c2cc(S(=O)(=O)N3CCc4ccccc43)cn2C)c1 | active: 25.9 µM | 
43 | Cc1cccc(C)c1OCc1cc(C(=O)N(Cc2c(C)nn(C)c2C)C2CC2)no1 | active: 8.2 µM | 
44 | CCCCNC(=O)/C(C#N)=C/c1ccc(C(=O)OC)cc1 | inconclusive [inhibitor, single point] | 
45 | O=C(O)Cn1nc(C(F)(F)F)c2c1CCC2 |  | inactive: -19.1%
46 | CCCN1C(=O)CN(C2CCCCC2)C(=O)C1c1ccc(OC)c(OC)c1 (stereo not given) |  | inactive: -15.2%
47 | CC(=O)N/N=C\c1ccccc1OC/C=C/c1ccccc1 | inconclusive [inhibitor, single point] | 
48 | Cc1ccc(C(=O)NCCc2nnc3n2CCN(Cc2ccc4ccccc4c2)CC3)c(C)c1 | inconclusive [inhibitor, partial curve, poor fit] | 

Row | SMILES | Potency | activity change, negative = growth inhibition
49 | Cc1nn(C)c(Cl)c1CN1CCCC(CO)(Cc2cccc(Cl)c2)C1 (stereo not given) | active: 14.6 µM | 
50 | O=C(C[n+]1cc(Br)cc2ccccc21)c1ccc(O)c(O)c1 | inconclusive [inhibitor, single point] | 
51 | O=C1C(=O)N(Cc2cccnc2)C(c2cccc([N+](=O)[O-])c2)/C1=C(/O)c1ccc2c(c1)OCO2 (stereo not given) |  | inactive: 4.24%
52 | O=C(CC[C@H]1O[C@@H](n2ccc(=O)[nH]c2=O)[C@H](O)[C@@H]1O)N[C@H](Cc1ccccc1)C(=O)NCC1CCCCC1 |  | inactive: -11.4%
53 | O=C(NCc1nnc(SCC(=O)N2CCCCCC2)o1)c1ccc(F)cc1 |  | inactive: -8.37%
54 | O=C(C1CCN(S(=O)(=O)c2ccccc2)CC1)N(CCc1ccccc1)Cc1ccco1 | inconclusive [inhibitor, single point] | 
55 | O=C(NC1CCCCC1)c1ccc2c(c1)S(=O)(=O)c1ccccc1C2=O | inconclusive [inhibitor, single point] | 
56 | CC(C)n1c(COc2ccccc2)nc2ccccc21 | inconclusive [inhibitor, single point] | 
57 | Cc1cccc(OP(=O)(Nc2c(C)n(C)n(-c3ccccc3)c2=O)Oc2cccc(C)c2)c1 |  | inactive: -7.24%
58 | Cc1cc(C)cc(NC(=O)C(=O)NCC2CCCN2S(=O)(=O)c2cccs2)c1 (stereo not given) | active: 10.3 µM | 
59 | Cc1cccc(C(=O)Nc2ccccc2N2CCN(c3ccc(F)cc3)CC2)c1 | inconclusive [inhibitor, single point] | 
60 | N#Cc1nc(-c2cccs2)oc1NCc1ccccc1Cl | inconclusive [inhibitor, partial curve, poor fit] | 
61 | COc1ccc(OC)c2c(/C=C/c3c[nH]c4ccccc34)ccnc12 | inconclusive [inhibitor, partial curve, poor fit] | 
62 | CS(=O)(=O)N1CCN(c2ccc(NC(=O)c3ccc([N+](=O)[O-])o3)cc2)CC1 | active: 7.31 µM | 
63 | Cc1nn(C)cc1CN(C)C(=O)c1cc(COc2ccc(F)cc2F)on1 | inconclusive [inhibitor, single point] | 
64 | Cc1ccc(S(=O)(=O)N2C[C@@H]3[C@H]4CC[C@H](C4)[C@@H]3[C@@H](C)[C@@H]2c2ccn([Si](C(C)C)(C(C)C)C(C)C)c2)cc1 | active: 23.1 µM | 
65 | COc1ccc([C@@H]2CC(=O)[C@@H]3CN(S(=O)(=O)c4ccc(Cl)cc4)[C@H](c4ccc(C)cc4)C[C@@H]3N2S(=O)(=O)c2ccccc2)cc1 | inconclusive [inhibitor, partial curve] | 
66 | CN(C)c1cccc(C(=O)n2cc(C(=O)c3cc(F)ccc3O)cn2)c1 | inconclusive [inhibitor, single point] | 
67 | Cc1csc(=Nc2cccnc2)n1Cc1ccco1 |  | inactive: -84.9%
68 | COc1ccc(CCNC(=O)CCCn2c(=S)[nH]c3ccsc3c2=O)cc1OC | inconclusive [inhibitor, single point] | 
69 | O=C(O)Cn1c(COc2ccc(Cl)cc2)nc2ccccc21 |  | inactive: -0.761%
70 | COc1ccc(OC)c(C2C(C(=O)c3cc4ccccc4o3)=C(O)C(=O)N2c2cc(C)on2)c1 (stereo not given) | inconclusive [inhibitor, single point] | 
